# The list shows a part of the results.
# Tested on: HSkMC (human skeletal muscle cells)
# Assay: cytotoxicity call (relative viability < 0.9)
# Conditions: 10 µM
row,SMILES,cytotoxicity call
1,C[C@@H]1CN([C@@H](C)CO)C(=O)c2cc(-c3cncnc3)cnc2O[C@@H]1CN(C)C(=O)CN1CCOCC1,inactive
2,CCc1cccc(C)c1NC(C)=O,inactive
3,CC(C)(C)[S@](=O)N1Cc2cc(C(=O)NCc3ccccn3)nc(-c3cccc(-c4ccccc4F)c3)c2[C@@H]1CCO,inactive
4,COc1ccc(S(=O)(=O)N(C)C[C@H]2Oc3ccc(NC(=O)NC(C)C)cc3C(=O)N([C@H](C)CO)C[C@@H]2C)cc1,inactive
5,C[C@@H]1CN([C@@H](C)CO)C(=O)c2cc(NS(=O)(=O)c3cccs3)ccc2O[C@@H]1CN(C)S(=O)(=O)c1cn(C)cn1,inactive
6,C[C@H](CO)N1C[C@H](C)[C@@H](CN(C)Cc2ccccc2)OCCCC[C@H](C)Oc2ccc(NS(=O)(=O)c3cccs3)cc2C1=O,inactive
7,C[C@H](CO)N1C[C@H](C)[C@@H](CN(C)S(C)(=O)=O)Oc2ccc(NC(=O)Cc3ccccc3)cc2CC1=O,inactive
8,Cn1cnc(S(=O)(=O)N2C[C@H](O)COC[C@H]3O[C@H](CC(=O)NCc4cccc(F)c4)CC[C@@H]32)c1,inactive
9,Cc1noc(C)c1S(=O)(=O)N(C)C[C@@H]1Oc2c(NC(=O)C3CC3)cccc2C(=O)N([C@@H](C)CO)C[C@@H]1C,inactive
10,C[C@@H](NC(=O)C[C@H]1C=C[C@@H](NC(=O)CN2CCOCC2)[C@H](CO)O1)c1ccccc1,inactive

# Tested on: HepG2
# Assay: cytotoxicity call (relative viability < 0.9)
# Conditions: 10 µM
row,SMILES,cytotoxicity call
1,C[C@@H]1CN([C@H](C)CO)C(=O)c2cc(NC(=O)CCCN(C)C)ccc2O[C@H]1CN(C)S(=O)(=O)c1ccc(Cl)cc1,inactive
2,C[C@H]1CN([C@@H](C)CO)C(=O)c2cc(NS(C)(=O)=O)ccc2O[C@@H]1CN(C)C(=O)Nc1ccccc1,inactive
3,C[C@H](CO)N1C[C@H](C)[C@H](CN(C)C(=O)Nc2cccc3ccccc23)Oc2c(NC(=O)Nc3ccc(F)cc3)cccc2C1=O,inactive
4,CCCCC(=O)N(Cc1ccc(-c2ccccc2-c2nn[nH]n2)cc1)C(C(=O)O)C(C)C (stereo not given),inactive
5,O=C(Nc1ccc2c(c1)[C@@H]1C[C@H](CC(=O)N3CCc4ccccc4C3)O[C@H](CO)[C@@H]1O2)C1CCOCC1,inactive
6,C[C@@H]1CN([C@@H](C)CO)C(=O)c2cc(Br)cnc2O[C@@H]1CN(C)C(=O)CN1CCOCC1,inactive
7,C[C@@H]1CN([C@@H](C)CO)C(=O)c2cccc(NC(=O)c3ccc(-c4nccs4)cc3)c2O[C@H]1CN(C)C(=O)NC1CCCCC1,inactive
8,COc1ccc2c3c(n(c2c1)C)[C@@H](CO)N(C[C@]13CN(CC2CCOCC2)C1)C(=O)c1ccc(cc1)F,inactive
9,Cc1ccc(S(=O)(=O)Nc2ccc3c(c2)CC(=O)N([C@H](C)CO)C[C@H](C)[C@H](CN(C)S(=O)(=O)c2cccs2)O3)cc1,inactive
10,COc1cc(C=O)ccc1O,active
11,Cc1ccc(S(=O)(=O)N(C)C[C@H]2Oc3c(NC(=O)C4CC4)cccc3C(=O)N([C@H](C)CO)C[C@H]2C)cc1,inactive
12,COc1ccc(S(=O)(=O)Nc2cccc3c2O[C@@H](CN(C)S(=O)(=O)c2ccccc2)[C@H](C)CN([C@H](C)CO)C3=O)cc1,inactive
13,COc1ccc(CN(C)C[C@H]2Oc3ccc(NC(=O)Nc4cccc5ccccc45)cc3CC(=O)N([C@@H](C)CO)C[C@@H]2C)cc1,active
14,COc1ccc2c3c([nH]c2c1)[C@@H](CO)N(C[C@]13CN(C1)S(=O)(=O)C)C(=O)c1cnccn1,inactive
15,C[C@@H]1O[C@@H](O[C@H]2[C@H](Oc3cc(O)c4c(c3)O[C@H](c3ccc(O)cc3)CC4=O)O[C@H](CO)[C@@H](O)[C@@H]2O)[C@H](O)[C@H](O)[C@H]1O,inactive
16,C[C@@H]1CN([C@@H](C)CO)C(=O)c2cccc(NC(=O)c3ccc(-c4nccs4)cc3)c2O[C@H]1CN(C)S(=O)(=O)c1ccc(Cl)cc1,inactive
17,COc1ccc(NC(=O)N(C)C[C@H]2Oc3ccc(NS(C)(=O)=O)cc3C(=O)N([C@H](C)CO)C[C@@H]2C)cc1,inactive
18,CC(C)CC#Cc1ccc2c(c1)O[C@H](CN(C)C(=O)NC1CCCC1)[C@H](C)CN([C@@H](C)CO)S2(=O)=O,inactive
19,COCC(=O)N(C)C[C@@H]1Oc2cc(C#CCC3CCCC3)ccc2S(=O)(=O)N([C@@H](C)CO)C[C@H]1C,inactive
20,C[C@H](CO)N1C[C@H](C)[C@@H](CN(C)C(=O)Nc2ccc3c(c2)OCO3)Oc2ccc(NC(=O)Cn3cnnn3)cc2CC1=O,inactive

# Reference: the antibiotic and cytotoxicity screens of Wong et al. (2023)
